# Among all 310,000 compounds or so, about 2,200 (0.71%) showed an effect of 50% or more. The effect is printed as a negative number. Some of the results follow.
# Target: human ether-à-go-go-related gene (hERG) potassium channel (human, UniProt Q12809)
# Test: primary screen, population patch clamp on CHO cells stably expressing hERG
# Chain of human ether-à-go-go-related gene (hERG) potassium channel (Q12809 whole entry, looked up): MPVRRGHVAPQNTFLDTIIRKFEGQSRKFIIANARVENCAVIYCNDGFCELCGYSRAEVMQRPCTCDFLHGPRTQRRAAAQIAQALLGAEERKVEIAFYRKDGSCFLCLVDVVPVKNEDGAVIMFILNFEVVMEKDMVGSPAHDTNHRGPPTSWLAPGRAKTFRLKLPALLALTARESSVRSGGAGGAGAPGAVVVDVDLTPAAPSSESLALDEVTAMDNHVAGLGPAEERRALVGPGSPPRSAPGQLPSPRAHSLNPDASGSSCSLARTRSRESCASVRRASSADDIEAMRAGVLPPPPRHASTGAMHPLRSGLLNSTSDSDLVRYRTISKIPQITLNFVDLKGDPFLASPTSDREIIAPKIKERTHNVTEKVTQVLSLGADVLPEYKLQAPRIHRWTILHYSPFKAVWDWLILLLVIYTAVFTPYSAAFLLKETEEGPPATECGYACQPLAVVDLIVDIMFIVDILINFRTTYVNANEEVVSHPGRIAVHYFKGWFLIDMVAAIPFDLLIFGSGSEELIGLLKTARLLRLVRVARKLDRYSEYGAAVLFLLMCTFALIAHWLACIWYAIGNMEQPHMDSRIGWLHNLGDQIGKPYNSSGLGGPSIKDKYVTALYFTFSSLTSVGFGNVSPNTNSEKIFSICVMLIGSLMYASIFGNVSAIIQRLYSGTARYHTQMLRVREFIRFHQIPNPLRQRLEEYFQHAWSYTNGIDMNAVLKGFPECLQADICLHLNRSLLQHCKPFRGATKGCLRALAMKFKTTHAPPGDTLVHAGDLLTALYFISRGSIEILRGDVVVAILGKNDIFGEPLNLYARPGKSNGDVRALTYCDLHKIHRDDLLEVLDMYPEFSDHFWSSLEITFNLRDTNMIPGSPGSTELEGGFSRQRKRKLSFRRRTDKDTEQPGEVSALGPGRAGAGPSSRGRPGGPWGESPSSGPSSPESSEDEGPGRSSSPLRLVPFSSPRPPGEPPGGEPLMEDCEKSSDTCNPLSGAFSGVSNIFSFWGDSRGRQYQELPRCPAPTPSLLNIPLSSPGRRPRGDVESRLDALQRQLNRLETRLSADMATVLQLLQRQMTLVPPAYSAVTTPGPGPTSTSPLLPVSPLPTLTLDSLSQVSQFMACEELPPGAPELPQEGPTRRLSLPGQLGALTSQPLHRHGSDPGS
row,Structure (SMILES),"hERG current change (%, negative = inhibition) at 1uM [%]"
1,COc1ccc(NC(=O)Nc2ccc(F)cc2)c(C)c1,10.3
2,Cc1noc(C)c1COC(=O)c1cc(S(=O)(=O)N2CCOCC2)ccc1F,8.81
3,COc1ccc(CS(=O)(=O)CC(C)(O)c2ccccc2)cc1 (stereo not drawn),8.48
4,COc1cc(Cn2c(=O)oc3ccc(C)cc32)ccc1OC(C)C,3.97
5,COc1ccc(CNC(=O)c2nnn(Cc3ccc(OC)cc3)c2N)cc1,10.8
6,CCOc1ccccc1C(=O)Nc1ccccc1-c1ccccc1,13
7,CC1CCCN(C/C=C/c2ccccc2[N+](=O)[O-])C1 (stereo not drawn),0.0822
8,COC(=O)c1cc(-c2ccc(Br)cc2)on1,8.21
9,CC1(c2ccc(Cl)cc2Cl)OCC(Cn2cncn2)O1.O=[N+]([O-])O (stereo not drawn),9.62
10,O=C(N[C@H]1CCC(=O)N(CCSc2ccc(Br)cc2)CC1)OCc1ccccc1,5.59
11,Nc1ncc([N+](=O)[O-])c(Oc2ccccc2F)n1,7.68
12,COc1ccc(Cl)cc1N(CC(=O)Nc1cccc(SC)c1)S(C)(=O)=O,2.67
13,O=C(Oc1nsnc1N1CCOCC1)c1ccccc1,6.03
14,O=C1NC(=S)N/C1=C\c1cccc([N+](=O)[O-])c1,16.1
15,COc1cc(/C=N/NC(=O)c2cc(-c3ccccc3)nc3ccccc23)cc(OC)c1O,13.5
16,CCOc1ccc(S(=O)(=O)NCCC(=O)NCC(c2ccc(F)cc2)N2CCOCC2)cc1 (stereo not drawn),-2.14
17,Cc1ccc(CN2CCSCC2)c(C)c1,20.2
18,COc1ccc(/C=C/C(=O)NC(=S)N2CCCC(C(N)=O)C2)cc1 (stereo not drawn),15.2
19,CCCN(CC(=O)Nc1ccccc1OC)C(=O)CCC(=O)c1ccc(OCC)cc1,-3.38
20,CCOC(=O)CSc1nn(-c2ccccc2)c(=S)s1,11.1
21,CC(CN1CCCC1)OC(=O)c1ccccc1Cl.Cl (stereo not drawn),11.7
22,O=C(COC(=O)c1ccc(O)cc1O)Nc1ncc(Cl)cc1Cl,1.61
23,Cc1nn(-c2ccccc2)c(C)c1C(=O)OCC(=O)N(C)c1ccccc1,13.8

row,Structure (SMILES),"hERG current change (%, negative = inhibition) at 1uM [%]"
1,CCOc1cc(/C=C(\C#N)c2nc(-c3cccs3)c(NC(C)=O)s2)ccc1O,-2.22
2,Cc1ccc(C)c(S(=O)(=O)N2CCC(c3nc4c(nnn4Cc4ccc5c(c4)OCCO5)c(=O)[nH]3)CC2)c1,11.3
3,CS(=O)(=O)c1ccc(N)c(SSc2cc(S(C)(=O)=O)ccc2N)c1,5.39
4,Clc1ccc(Cn2cnc3ccccc32)cc1,12.5
5,c1ccc(N2N=C(c3cccs3)CC2c2ccco2)cc1 (stereo not drawn),10.2
6,CCn1cc([N+](=O)[O-])c(C(=O)Nc2ccn(C34CC5CC(CC(C5)C3)C4)n2)n1,12.5
7,O=C(c1cccc(NS(=O)(=O)c2ccc(Br)cc2)c1)N1CCCCC1,4.34
8,O=C(NC(=S)NCc1ccccc1)c1cccc(Cl)c1,12.3
9,O=C(COC(=O)c1cccnc1Cl)NCCCc1ccccc1,7.26
10,O=C(Nc1ccc(Cl)c(Cl)c1)OCc1cncs1,-8.72
11,O=C(CSc1n[nH]c(-c2cc(Cl)ccc2Cl)n1)NCCN1C(=O)CSC1=O,13.1
12,O=C(COc1ccc(Cl)cc1)N1CCCCCCC1,9.48
13,O=C1CSC(c2cccnc2)N1Cc1ccc(Cl)cc1 (stereo not drawn),9.82
14,CCCCCC(=O)NNC(=S)NC(=O)c1cccc([N+](=O)[O-])c1,17.3
15,Cc1cc(C)n(/N=C/c2cc(Cl)cc(Cl)c2O)c(=O)c1,14
16,Cc1ccc(SCC(=O)NC2CCS(=O)(=O)C2)cc1C (stereo not drawn),8.74
17,Cc1ccc(-n2c(-c3cccnc3)n[nH]c2=S)c(C)c1,-3.04
18,COc1ccc(/C=C/C(=O)NC(=S)Nc2ccccn2)cc1,1.3
19,O=C(CN1C(=O)c2ccccc2S1(=O)=O)NCCSCc1cccc(Cl)c1,13.2
20,CC(=O)c1sc(NC(=O)c2ccco2)nc1-c1ccccc1,13.6
21,OC12CCCCC1C(c1ccc3c(c1)OCO3)N(Cc1ccc(F)cc1)CC2 (stereo not drawn),8.72
22,CS(=O)(=O)CCC(C(=O)N1CCOCC1)N1C(=O)c2cc(Cl)c(Cl)cc2C1=O (stereo not drawn),13.8
23,CCCn1c2ccccc2c2cnn(CC(=O)NCCOC)c(=O)c21,6.19

row,Structure (SMILES),"hERG current change (%, negative = inhibition) at 1uM [%]"
1,CCc1ccc(/C=N/NC(=O)c2cc(-c3ccccc3OC)nc3ccccc23)s1,14.1
2,CCC1CCCCN1c1nc(-c2cccc(OC)c2O)nc2ccccc12 (stereo not drawn),13.6
3,COCCCNC(=O)CSc1nc2cc(C(=O)NCCOC)ccc2c(=O)n1Cc1ccc2c(c1)OCO2,7.01
4,O=P(O)(O)c1cc(-c2ccccc2)oc1-c1ccccc1,14.7
5,COc1ccc(OCc2n[nH]c(=S)n2-c2ccc(C)cc2)cc1,3.13
6,COc1ccc(CCNC(=O)c2ccc(CN3CCOCC3)cc2)cc1,9.31
7,Cc1ccc(-n2c(=O)c3sccc3n(CC(=O)N3CCCC3)c2=O)cc1,10.9
8,CCC(=O)Nc1c(C)n[nH]c1C,14
9,CSc1ccc(C(=O)C2CCCN(C(=O)Cc3nonc3C)C2)cc1 (stereo not drawn),1.07
10,Cc1ccc(Cn2ccc(NC(=O)c3nn(C)cc3Cl)n2)cc1,0.725
11,O=C(COc1ccc2c3c(c(=O)oc2c1)CCC3)NCC1CCC(C(=O)O)CC1 (stereo not drawn),18.7
12,CC(=O)c1ccc(OCc2cc(C(=O)N(C)CCN3CCOCC3)no2)cc1,13.7
13,COC1CCCN(C(=O)c2cccc(OC3CCN(S(=O)(=O)N(C)C)CC3)c2)C1 (stereo not drawn),19
14,CC(=O)c1ccc(NC(=O)c2cccc(NC(=O)c3ccccc3)c2)cc1,12.5
15,Cc1cc(C)c2oc(C(=O)N(Cc3ccccc3)C3CCS(=O)(=O)C3)cc(=O)c2c1 (stereo not drawn),7.34
16,Cc1cc(Cl)cc(Cl)c1OCCOc1cccc2cccnc12,16.2
17,Cc1nn(C)c(C)c1/C=N/NC(=O)C(C)(C)Oc1ccc(Cl)cc1,8.86
18,CCN(C(=O)/C=C/c1cc(OC)c(OC)c(OC)c1)C1CCCCC1,12.8
19,O=C(COC(=O)/C=C/c1ccccc1)Nc1cccnc1Cl,9.3
20,c1ccc(CNc2c3c(nc4ncnn24)CCCC3)nc1,-0.536
21,O=C(CCn1nnnc1CN1CCOCC1)N1CCC(c2ccccc2F)C1 (stereo not drawn),3.83
22,CCCCC(NC(=O)Cc1c(C)c2cc3c4c(oc3cc2oc1=O)CCCC4)C(=O)O (stereo not drawn),10.8
23,CCc1ccc(-c2cc(C)no2)cc1S(=O)(=O)NCCc1ccc(OC)c(OC)c1,19.2

row,Structure (SMILES),"hERG current change (%, negative = inhibition) at 1uM [%]"
1,COCCCNC(=O)c1cc(Sc2nnc(C)s2)nc2ccccc12,10.1
2,CC1(C)OC(=O)C(=CNCC(O)c2ccccc2)C(=O)O1 (stereo not drawn),15.9
3,COc1ccc(C(C(=O)NCCC(C)C)N(CCCO)C(=O)c2snc(C(N)=O)c2N)cc1OC (stereo not drawn),12.7
4,CCOC(=O)c1sc(NC(=O)CSc2nccc(C)n2)c(C#N)c1C,7.98
5,CCOCCCNC(=S)N(Cc1ccccc1)Cc1nc2ccccc2c(=O)[nH]1,3.8
6,Cc1ccccc1Nc1nc(N)nc(COC(=O)CCNS(=O)(=O)c2ccccc2)n1,-1.7
7,CCOC(=O)C1(C(F)(F)F)N=C(c2cccnc2)OC(N2CCOCC2)=N1 (stereo not drawn),12.8
8,COc1ccc(Cl)cc1NC(=S)NCCC(c1ccccc1)c1ccccc1,9.05
9,CN(C)C=NC(=O)c1cc(C(=O)c2ccc(Cl)cc2)c[nH]1,10.1
10,CCOc1ccc(C=NCC(O)c2ccccc2)cc1 (stereo not drawn),11.3
11,N/C(Cn1cncn1)=N\NC(=O)C(=O)Nc1cccc(C(F)(F)F)c1,14.3
12,COc1ccc(CCNC(=O)CSc2nc(=O)[nH]c3c2CCC3)cc1OC,12.2
13,CN(C)Cc1n[nH]c(=O)c2ccccc12,9.65
14,Cc1ccc(S(=O)(=O)N(C)C)cc1NC(=S)NC1CCCC(C)C1C (stereo not drawn),14.3
15,Cc1ccc(NC2CCCCC2NS(=O)(=O)c2ccccc2)c(C)c1 (stereo not drawn),14.3
16,CCOC(=O)CC1(c2ccccc2)CCOC(C)(C)C1 (stereo not drawn),9.57
17,COc1cc2c(c(OC)c1OC)-c1ccc(O)c(=O)cc1C(NC(C)=O)CC2 (stereo not drawn),14.6
18,Cn1cccc1/C=C1\SC(=O)N(c2ccccc2)C1=O,8.82
19,Cc1ccc(-c2cc(C(F)(F)F)n3nc(C(=O)NCCCn4ccnc4)cc3n2)cc1C,-4.52
20,NC(=O)c1nsc(C(=O)N(c2ccccc2)C(C(=O)NCC2CCCO2)c2ccc3ncccc3c2)c1N (stereo not drawn),2.27
21,CCN(CC)C(=O)C(=O)N/N=C/c1ccc(C(=O)OC)cc1,9.14

# From article PMC4336329 (PLoS ONE, 2015)
